# Data from US20040053837A1 (LUDWIG INSTITUTE FOR CANCER RESEARCH, published 2004).
# Legend:
# [1] = molecular target: T1, human PDGF alpha-receptor (human, UniProt P16234 24-1089); assay: competition with 30 ng/ml 125I-labeled truncated PDGF-C on PAE-1 cells expressing PDGF alpha receptors
# T1 construct: whole, on cells; also called PDGF receptor alpha; PDGFR-alpha
# Method: To assess the interactions between truncated PDGF-C and the PDGF alpha and beta receptors, truncated PDGF-C was tested for its capacity to bind to porcine aortic endothelial-1 (PAE-1) cells expressing PDGF alpha or beta receptors, respectively (Eriksson et al., EMBO J, 1992 11:543-550). The binding experiments were performed essentially as described in Heldin et al. (EMBO J, 1988 7:1387-1393). Five micrograms of truncated PDGF-C protein in ten microliters of sodium borate buffer was radiolabeled using the Bolton-Hunter reagent (Amersham) to a specific activity of 4×10⁵ cpm/ng. Different concentrations of radiolabeled truncated PDGF-C, with or without added unlabeled protein, in binding buffer (PBS containing 1 mg/ml of bovine serum albumin) was added to the receptor expressing PAE-1 cells plated in 24-well culture dishes on ice for 90 minutes. After three washes with binding buffer, cell-bound ¹²⁵I-labeled PDGF-C was extracted by lysis of cells in 20 mM Tris-HCl, pH 7.5, 10% glycerol, 1% Triton X-100. The amount of cell-bound radioactivity was determined in a gamma-counter. Non-specific binding was estimated by including a 100-fold molar excess of truncated PDGF-C in some experiments. […] The binding was specific as radiolabeled PDGF-C was quantitatively displaced by a 100-fold molar excess of unlabeled protein. […]
# human PDGF beta-receptor = molecular target: T2, human PDGF beta-receptor (human, UniProt P09619 33-1106); assay: competition with 125I-PDGF-BB on PAE-1 cells expressing human PDGF beta-receptor
# T2 construct: whole, on cells; also called PDGF receptor beta; PDGFR-beta
# Method: Next, full length and truncated PDGF-C were tested for their capacity to bind to human PDGF receptors alpha and beta by analyzing their abilities to compete with PDGF-BB for binding to PDGF receptors. The binding experiments were performed on porcine aortic endothelial-1 (PAE-1) cells stably expressing the human PDGF receptors alpha and beta (Eriksson et al., EMBO J, 1992, 11, 543-550). Binding experiments were performed essentially as in Heldin et al. (EMBO J, 1988, 7:1387-1393). Different concentrations of human full-length and truncated PDGF-C, or human PDGF-BB were mixed with 5 ng/ml of ¹²⁵I-PDGF-BB in binding buffer (PBS containing 1 mg/ml of bovine serum albumin). Aliquots were incubated with the receptor expressing PAE-1 cells plated in 24-well culture dishes on ice for 90 minutes. After three washes with binding buffer, cell-bound ¹²⁵I -PDGF-BB was extracted by lysis of cells in 20 mM Tris-HCl, pH 7.5, 10% glycerol, 1% Triton X-100. The amount of cell bound radioactivity was determined in a gamma-counter. A standard curve for the binding of ¹²⁵I-labeled PDGF BB homodimers to PAE-1 cells expressing PDGF alpha-receptor is shown in FIG. 18. An increasing excess of the unlabeled protein added to the incubations competed efficiently with cell association of the radiolabeled tracer.
# T1 sequence (P16234 24-1089): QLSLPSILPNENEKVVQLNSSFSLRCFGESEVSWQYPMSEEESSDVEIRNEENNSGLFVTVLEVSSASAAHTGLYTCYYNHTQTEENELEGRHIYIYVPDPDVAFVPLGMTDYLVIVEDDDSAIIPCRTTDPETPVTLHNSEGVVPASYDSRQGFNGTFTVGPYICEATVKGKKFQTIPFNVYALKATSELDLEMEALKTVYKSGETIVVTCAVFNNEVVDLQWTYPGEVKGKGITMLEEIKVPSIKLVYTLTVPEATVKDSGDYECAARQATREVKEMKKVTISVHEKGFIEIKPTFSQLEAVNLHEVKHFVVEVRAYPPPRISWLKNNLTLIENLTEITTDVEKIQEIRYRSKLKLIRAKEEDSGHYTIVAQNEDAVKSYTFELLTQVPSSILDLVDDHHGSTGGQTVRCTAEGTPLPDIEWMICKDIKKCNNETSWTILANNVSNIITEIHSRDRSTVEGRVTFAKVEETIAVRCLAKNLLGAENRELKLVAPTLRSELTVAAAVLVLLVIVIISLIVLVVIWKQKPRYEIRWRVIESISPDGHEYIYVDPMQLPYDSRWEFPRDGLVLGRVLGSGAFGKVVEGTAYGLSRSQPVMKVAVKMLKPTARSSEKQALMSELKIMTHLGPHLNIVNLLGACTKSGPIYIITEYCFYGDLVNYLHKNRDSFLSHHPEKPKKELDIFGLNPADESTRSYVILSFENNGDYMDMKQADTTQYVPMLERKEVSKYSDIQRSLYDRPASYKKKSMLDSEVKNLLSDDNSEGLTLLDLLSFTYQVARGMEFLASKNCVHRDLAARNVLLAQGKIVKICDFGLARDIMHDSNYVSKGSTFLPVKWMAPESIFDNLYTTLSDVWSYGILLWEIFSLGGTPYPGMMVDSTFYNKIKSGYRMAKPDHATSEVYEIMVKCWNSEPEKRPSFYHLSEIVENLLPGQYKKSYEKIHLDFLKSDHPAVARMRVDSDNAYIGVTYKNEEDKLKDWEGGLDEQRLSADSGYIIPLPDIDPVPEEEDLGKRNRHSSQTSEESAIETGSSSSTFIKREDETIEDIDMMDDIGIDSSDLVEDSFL
# Sequence of human PDGF beta-receptor (P09619 33-1106): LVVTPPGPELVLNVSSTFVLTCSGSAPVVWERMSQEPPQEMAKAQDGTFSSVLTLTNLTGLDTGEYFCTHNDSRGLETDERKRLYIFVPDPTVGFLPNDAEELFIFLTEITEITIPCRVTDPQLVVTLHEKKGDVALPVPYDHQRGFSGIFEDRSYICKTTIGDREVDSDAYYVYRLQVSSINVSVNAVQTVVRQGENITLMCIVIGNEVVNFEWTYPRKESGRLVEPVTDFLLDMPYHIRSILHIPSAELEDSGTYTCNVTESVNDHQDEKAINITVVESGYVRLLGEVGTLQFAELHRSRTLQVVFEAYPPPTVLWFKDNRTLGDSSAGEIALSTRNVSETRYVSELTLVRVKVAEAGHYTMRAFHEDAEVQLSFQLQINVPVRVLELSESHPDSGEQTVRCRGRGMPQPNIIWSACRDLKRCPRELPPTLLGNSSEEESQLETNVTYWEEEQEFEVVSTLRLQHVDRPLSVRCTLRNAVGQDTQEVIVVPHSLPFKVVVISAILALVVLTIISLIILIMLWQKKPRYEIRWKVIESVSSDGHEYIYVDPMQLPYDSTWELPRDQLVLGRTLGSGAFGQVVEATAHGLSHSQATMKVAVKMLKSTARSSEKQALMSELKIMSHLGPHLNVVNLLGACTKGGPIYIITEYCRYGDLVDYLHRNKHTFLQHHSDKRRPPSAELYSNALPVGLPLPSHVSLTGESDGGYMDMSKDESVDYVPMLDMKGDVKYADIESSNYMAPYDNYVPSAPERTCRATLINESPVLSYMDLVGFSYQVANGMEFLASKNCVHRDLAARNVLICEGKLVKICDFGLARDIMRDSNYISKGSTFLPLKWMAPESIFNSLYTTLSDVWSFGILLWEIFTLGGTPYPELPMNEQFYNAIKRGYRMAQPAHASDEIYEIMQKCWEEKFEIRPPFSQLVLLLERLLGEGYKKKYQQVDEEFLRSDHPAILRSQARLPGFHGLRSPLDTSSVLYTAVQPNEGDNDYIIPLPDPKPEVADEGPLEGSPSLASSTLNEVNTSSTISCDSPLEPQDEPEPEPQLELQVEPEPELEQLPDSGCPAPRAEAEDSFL
binder,measurement,setting,value
"full length human PDGF-CC homodimer (recombinant, baculovirus-infected Sf9 cells, C-terminal enterokinase site and 6xHis tag) (ligand, not shown: small tags and cut ends, Disulfide-linked dimer (90 kDa non-reduced, 55 kDa reduced); The 'full length coding part' (970 bp) was cloned in frame into pAcGP67A; The very similar forward primer of the CUB construct is said to start at residue 23; also called flPDGF-CC; full length PDGF-C) not shown",binding result,[1],no binding
same,binding result,human PDGF beta-receptor,no binding
